Results taken from the supplement of paper PMC11417369.
Some of the results follow.

tested on: PfSIP2 AP2 domain 1 (GST-tagged); test: gcPBM binding intensity (ln(normalized median fluorescence intensity)); higher = stronger DNA binding
Outline: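 Alexa488 anti-GST antibody, scanned at 488 nm, detected GST-tagged P. falciparum DNA-binding domains that had been expressed in E. coli and incubated for 1 h on an Agilent 4 × 180k array. The array carried primer-extended double-stranded 36-bp intergenic genomic probes and negative controls. Binding intensity is the highest Masliner-normalised natural-log median intensity across replicate spots of either orientation of each probe.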

First: TCTTCAAAGACACAATCACACACATACATAAATATA [CACACA_site8128]
Second: AATACGTTTCAAAAATGTACACATATATCATAAATA [XGTACX_site8962]
The “gcPBM binding intensity (ln)” value of the first is lower: 7.16 for the first, 7.26 for the second.

Compared with “ATCAAAAATGTTATATATATATATATATATATATAT [TGCATGCA_negctrl_site71]”, “TTTTATTTTCGATGATGTACATTAAATTATACAGTA [XGTACX_site6053]” is lower in “gcPBM binding intensity (ln)” value: 9.85 for the first, 7.01 for the second.

Going from “AAATATTACTCCTCAAGTACACATAAAAAAAAAATA [XGTACX_site2085]” to “TATTTTTTTTGATATTGTACTTTTTTATTATTTTTT [XGTACX_site566]”, the “gcPBM binding intensity (ln)” value falls from 7.25 to 7.04.

Going from “TAAAAATTTAAGAAAACATGCATCTAACATATATAT [TGCATGCA_site342]” to “AATATACAAAATAAATAAAATATATATATATATATA [CACACA_negctrl_site216]”, the “gcPBM binding intensity (ln)” value rises from 7.13 to 9.48.

First: TTACATGCTAAAATTTGTACATATATGATAAATATT [XGTACX_site2648]
Second: ATACATAAATTTATACGTACATATATAGATACATAA [XGTACX_site675]
The “gcPBM binding intensity (ln)” value of the first is lower: 7.06 for the first, 7.38 for the second.

Going from “TTGTTTTCACCAAATACACACAAGCATACACCCCAT [CACACA_site2717]” to “AAGTAAAATAAGTATACACACATAAATATGTAAATA [CACACA_site6467]”, the “gcPBM binding intensity (ln)” value falls from 7.49 to 6.9.

First: GTATATATGTATGTATGTACTTATAAAGTTGCATAT [XGTACX_site5616]
Second: TCTACATCTGTATATAAACACACAACAAAAATGCTT [CACACA_site9271]
The “gcPBM binding intensity (ln)” value of the first is higher: 7.42 for the first, 6.81 for the second.

Compared with “TATTTATTGTGATACTTATATTATTTCATGATTAAT [CACACA_negctrl_site738]”, “ACTTTATTATATATTTGTACATATATTTTTAATTTC [XGTACX_site4144]” is higher in “gcPBM binding intensity (ln)” value: 6.88 for the first, 7.34 for the second.

Compared with “TATATATTTCAATAATGTACATATAATATATATATT [XGTACX_site4124]”, “TTCTTACACAAAAAAATGAAATCAATCAAAAAAAAA [CACACA_negctrl_site869]” is lower in “gcPBM binding intensity (ln)” value: 7.01 for the first, 6.98 for the second.

Going from “AATGTGTAGACACGCACACACAAAAAAATATTTATA [CACACA_site7384]” to “AAGTAATCATCATAAAGTACTAAATTATATTGTCAA [XGTACX_site5841]”, the “gcPBM binding intensity (ln)” value falls from 7.01 to 6.76.

Going from GAAAATATATTTAAGATGCACTTTAAAAATGTACTT to “AAATTATATATAAAATGTACATATGTAGGTAATTTT [XGTACX_site5047]”, the “gcPBM binding intensity (ln)” value falls from 8.4 to 7.07.

Compared with “ACATTCTGATGGTGATTATTAATTATTACAAAAATT [CACACA_negctrl_site283]”, CAATTTATTATATATGTGCACATATAATTTTACAAA is higher in “gcPBM binding intensity (ln)” value: 6.95 for the first, 8.31 for the second.

Going from “TAATTATTTTTATTGTTGCACTAGTAAAATTTTAAG [GTGCAC_site9946]” to “AATACAAATATATATGCACACACATATACATACATA [CACACA_site8677]”, the “gcPBM binding intensity (ln)” value falls from 8.83 to 7.25.

Going from “TACATTTTAATATAAGCATGCCTTTAGTTTTTTTCT [TGCATGCA_site829]” to “AAAAAGAAATACAAATAATATATATATATATATATT [TGCATGCA_negctrl_site458]”, the “gcPBM binding intensity (ln)” value rises from 6.61 to 7.57.

Going from “CATAAAAATTGAAGCACACACACAAAAGAAATACAA [CACACA_site1112]” to “AATAAACAAATAAATAAACACACAATATATGTATAT [CACACA_site9268]”, the “gcPBM binding intensity (ln)” value falls from 7.05 to 6.88.

First: TTTCTTTAACAAGTTAAACACACATACATATATACA [CACACA_site8810]
Second: ATCATTTCTATATAAGCACACACGTGGAATTTTTTT [CACACA_site2786]
The “gcPBM binding intensity (ln)” value of the first is higher: 7.06 for the first, 7.04 for the second.

Compared with TTACTTATATGCATAGTGCAAATTTGGTAAATATCT, “CACATACAGATATATACACACAAATATAAATACACA [CACACA_site6512]” is lower in “gcPBM binding intensity (ln)” value: 8.81 for the first, 7.21 for the second.

Compared with “AATAAATATAAAAATGCACACACACTAATAAAAAAA [CACACA_site8201]”, “AAAATAAATATATTATCCACGTTGTATATATATATA [XGTACX_negctrl_site136]” is higher in “gcPBM binding intensity (ln)” value: 7.79 for the first, 9.42 for the second.

First: AGCGTATAACATATGACACACACACCGACATACACA [CACACA_site8532]
Second: ATATATATATGGAAGTGTACTTATATAGCATACTAG [XGTACX_site5130]
The “gcPBM binding intensity (ln)” value of the first is lower: 6.91 for the first, 8.77 for the second.

Compared with “TACGTATCATAATTTTATTTTATATATATTCACAAA [XGTACX_negctrl_site144]”, “AAATTTTTATAATTATCACACATTGAATTGTGGTCT [CACACA_site4343]” is lower in “gcPBM binding intensity (ln)” value: 6.91 for the first, 6.71 for the second.

Going from “ATTCACAAATATATGGTGCATAATATATATATATAT [GTGCAC_site9674]” to “AACAATTATTGTAATGCATGCACTGAATATAGAAAG [TGCATGCA_site889]”, the “gcPBM binding intensity (ln)” value falls from 10.6 to 9.15.

Going from “AATATGTAAATATGGGTGCTTTAAAATATATTCATT [GTGCAC_site9583]” to “TTCCAATGATAAAATTGTACTTGAAGAAAATTTTTT [XGTACX_site4607]”, the “gcPBM binding intensity (ln)” value falls from 7.39 to 6.67.
